Measured values as given in the supplement of paper PMC8728848.
Some of the results follow.

Assays:
Test in all cases: glycan array binding signal (z-score within array); higher = stronger binding
Details in all cases: glycan notation: IUPAC condensed, linker removed
[1] = target: Fuc(a1-2)Gal(b1-4)[Fuc(a1-3)]GlcNAc(b1-2)Man(a1-3)[Fuc(a1-2)Gal(b1-4)[Fuc(a1-3)]GlcNAc(b1-2)Man(a1-6)]Man(b1-4)GlcNAc(b1-4)[Fuc(a1-6)]GlcNAc
Summary of the method: (§1)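 The binding signal is a Z-score computed within each array. Data were drawn from 3228 arrays in the Consortium for Functional Glycomics database, restricted to those with a known protein sequence. Scores were averaged over arrays of the same protein sequence at different concentrations or buffers, and over linkers, and negative values can be taken as non-binding.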

[2] = target: Fuc(a1-2)Gal(b1-4)[Fuc(a1-3)]GlcNAc(b1-2)[Fuc(a1-2)Gal(b1-4)[Fuc(a1-3)]GlcNAc(b1-4)]Man(a1-3)[Fuc(a1-2)Gal(b1-4)[Fuc(a1-3)]GlcNAc(b1-2)Man(a1-6)]Man(b1-4)GlcNAc(b1-4)GlcNAc
Summary of the method: as §1

[3] = target: Fuc(a1-2)Gal(b1-4)[Fuc(a1-3)]GlcNAc(b1-3)Gal(b1-4)[Fuc(a1-3)]GlcNAc
Summary of the method: as §1

[4] = target: Fuc(a1-2)Gal(b1-4)[Fuc(a1-3)]GlcNAc(b1-3)Gal(b1-4)[Fuc(a1-3)]GlcNAc(b1-3)Gal(b1-4)[Fuc(a1-3)]GlcNAc
Summary of the method: as §1

[5] = target: Fuc(a1-2)Gal(b1-4)[Fuc(a1-3)]GlcNAc(b1-3)GalNAc
Summary of the method: as §1

[6] = target: Fuc(a1-2)Gal(b1-4)[Fuc(a1-3)]GlcNAc(b1-3)[Neu5Ac(a2-6)Gal(b1-4)GlcNAc(b1-6)]Gal(b1-4)Glc
Summary of the method: as §1

[7] = target: Fuc(a1-2)Gal3S(b1-4)GlcNAc
Summary of the method: as §1

[8] = target: Fuc(a1-2)Gal6S(b1-3)GlcNAc
Summary of the method: as §1

[9] = target: Fuc(a1-2)Gal6S(b1-3)GlcNAc6S
Summary of the method: as §1

Fuc(a1-2)Gal6S(b1-4)Glc = target: Fuc(a1-2)Gal6S(b1-4)Glc
Summary of the method: as §1

[10] = target: Fuc(a1-2)Gal6S(b1-4)Glc6S
Summary of the method: as §1

Fuc(a1-2)[Gal(a1-3)]Gal = target: Fuc(a1-2)[Gal(a1-3)]Gal
Summary of the method: as §1

[11] = target: Fuc(a1-2)[Gal(a1-3)]Gal(b1-3)GalNAc
Summary of the method: as §1

[12] = target: Fuc(a1-2)[Gal(a1-3)]Gal(b1-3)GalNAc(b1-3)Gal(a1-4)Gal(b1-4)Glc
Summary of the method: as §1

[13] = target: Fuc(a1-2)[Gal(a1-3)]Gal(b1-3)GlcNAc
Summary of the method: as §1

[14] = target: Fuc(a1-2)[Gal(a1-3)]Gal(b1-3)GlcNAc(b1-2)Man(a1-3)[Fuc(a1-2)[Gal(a1-3)]Gal(b1-3)GlcNAc(b1-2)Man(a1-6)]Man(b1-4)GlcNAc(b1-4)GlcNAc
Summary of the method: as §1

[15] = target: Fuc(a1-2)[Gal(a1-3)]Gal(b1-3)GlcNAc(b1-2)Man(a1-3)[Fuc(a1-2)[Gal(a1-3)]Gal(b1-3)GlcNAc(b1-2)Man(a1-6)]Man(b1-4)GlcNAc(b1-4)[Fuc(a1-6)]GlcNAc
Summary of the method: as §1

[16] = target: Fuc(a1-2)[Gal(a1-3)]Gal(b1-3)GlcNAc(b1-3)GalNAc
Summary of the method: as §1

[17] = target: Fuc(a1-2)[Gal(a1-3)]Gal(b1-3)GlcNAc(b1-6)GalNAc
Summary of the method: as §1

[18] = target: Fuc(a1-2)[Gal(a1-3)]Gal(b1-4)Glc
Summary of the method: as §1

[19] = target: Fuc(a1-2)[Gal(a1-3)]Gal(b1-4)GlcNAc
Summary of the method: as §1

[20] = target: Fuc(a1-2)[Gal(a1-3)]Gal(b1-4)GlcNAc(b1-2)Man
Summary of the method: as §1

[21] = target: Fuc(a1-2)[Gal(a1-3)]Gal(b1-4)GlcNAc(b1-2)Man(a1-3)[Fuc(a1-2)[Gal(a1-3)]Gal(b1-4)GlcNAc(b1-2)Man(a1-6)]Man(b1-4)GlcNAc(b1-4)GlcNAc
Summary of the method: as §1

[22] = target: Fuc(a1-2)[Gal(a1-3)]Gal(b1-4)GlcNAc(b1-2)Man(a1-3)[Fuc(a1-2)[Gal(a1-3)]Gal(b1-4)GlcNAc(b1-2)Man(a1-6)]Man(b1-4)GlcNAc(b1-4)[Fuc(a1-6)]GlcNAc
Summary of the method: as §1

[23] = target: Fuc(a1-2)[Gal(a1-3)]Gal(b1-4)GlcNAc(b1-3)GalNAc
Summary of the method: as §1

[24] = target: Fuc(a1-2)[Gal(a1-3)]Gal(b1-4)GlcNAc(b1-3)[Fuc(a1-2)[Gal(a1-3)]Gal(b1-4)GlcNAc(b1-6)]GalNAc
Summary of the method: as §1

[25] = target: Fuc(a1-2)[Gal(a1-3)]Gal(b1-4)GlcNAc(b1-6)GalNAc
Summary of the method: as §1

[26] = target: Fuc(a1-2)[Gal(a1-3)]Gal(b1-4)[Fuc(a1-3)]Glc
Summary of the method: as §1

[27] = target: Fuc(a1-2)[Gal(a1-3)]Gal(b1-4)[Fuc(a1-3)]GlcNAc
Summary of the method: as §1

[28] = target: Fuc(a1-2)[Gal(a1-3)]Gal(b1-4)[Fuc(a1-3)]GlcNAc(b1-3)GalNAc
Summary of the method: as §1

[29] = target: Fuc(a1-2)[Gal(a1-4)]Gal(b1-4)GlcNAc
Summary of the method: as §1

[30] = target: Fuc(a1-2)[GalNAc(a1-3)]Gal
Summary of the method: as §1

[31] = target: Fuc(a1-2)[GalNAc(a1-3)]Gal(b1-3)GalNAc(a1-3)[Fuc(a1-2)]Gal(b1-4)GlcNAc
Summary of the method: as §1

[32] = target: Fuc(a1-2)[GalNAc(a1-3)]Gal(b1-3)GalNAc(b1-3)Gal(a1-4)Gal(b1-4)Glc
Summary of the method: as §1

[33] = target: Fuc(a1-2)[GalNAc(a1-3)]Gal(b1-3)GlcNAc
Summary of the method: as §1

[34] = target: Fuc(a1-2)[GalNAc(a1-3)]Gal(b1-3)GlcNAc(b1-2)Man(a1-3)[Fuc(a1-2)[GalNAc(a1-3)]Gal(b1-3)GlcNAc(b1-2)Man(a1-6)]Man(b1-4)GlcNAc(b1-4)GlcNAc
Summary of the method: as §1

[35] = target: Fuc(a1-2)[GalNAc(a1-3)]Gal(b1-3)GlcNAc(b1-2)Man(a1-3)[Fuc(a1-2)[GalNAc(a1-3)]Gal(b1-3)GlcNAc(b1-2)Man(a1-6)]Man(b1-4)GlcNAc(b1-4)[Fuc(a1-6)]GlcNAc
Summary of the method: as §1

[36] = target: Fuc(a1-2)[GalNAc(a1-3)]Gal(b1-3)GlcNAc(b1-3)GalNAc
Summary of the method: as §1

B1: ClecSol-Fc (Cryptosporidium parvum) (protein)
chain: CPEGWISNGEKTRCFKLVTFDRPRTFSHGFKACNDLGGTEVETRRRNGSKETNEYPVTLASVYKLSDEEAIRRTLVEQGDIHKTANGCFVGLRKYAFFRYPPGWYWIDSGSPVSVRDSEINWTSSYNASWLLRFKFPFEKCGFFDIGGLGRRPCWLIDSELSCAVCGTVAYDSGGLNPNKYSELIKQTDEIISKEPKLDLPGYNNLNCTDAWENNLSVGLCQNVSNILDSAWSSYQSSLNFPSINFNWKEDSTNEGGDQVYHNSYLDLPRYKQKKTFYWDQDPGTIPALSDEMKLIGLSAQPTYHPLDRSSSGSFESDSTESGRANEERNDTLEEMIYKQSSDSIEDILVPVTKPIFSDYSSIGRNSGVEEVYSSNVSTISSKGVVFPNTTTSSDNDFTKNNPANSSKHTSTSTTTNTTTTTTRTTTTTTTTTTTTTTTTTTTTETTTTKKSTTATKNTTTT
glycan array binding signal (z-score) [1]: 0.119
glycan array binding signal (z-score) [2]: 0.069
glycan array binding signal (z-score) [3]: -0.071
glycan array binding signal (z-score) [4]: -0.192
glycan array binding signal (z-score) [5]: -0.234
glycan array binding signal (z-score) [6]: -0.133
glycan array binding signal (z-score) [7]: -0.19
glycan array binding signal (z-score) [8]: -0.025
glycan array binding signal (z-score) [9]: 0.296
glycan array binding signal (z-score) (Fuc(a1-2)Gal6S(b1-4)Glc): 0.012
glycan array binding signal (z-score) [10]: -0.047
glycan array binding signal (z-score) (Fuc(a1-2)[Gal(a1-3)]Gal): -0.175
glycan array binding signal (z-score) [11]: -0.154
glycan array binding signal (z-score) [12]: -0.109
glycan array binding signal (z-score) [13]: -0.158
glycan array binding signal (z-score) [14]: 0.149
glycan array binding signal (z-score) [15]: -0.154
glycan array binding signal (z-score) [16]: 0.014
glycan array binding signal (z-score) [17]: -0.233
glycan array binding signal (z-score) [18]: -0.011
glycan array binding signal (z-score) [19]: -0.184
glycan array binding signal (z-score) [20]: -0.094
glycan array binding signal (z-score) [21]: -0.245
glycan array binding signal (z-score) [22]: -0.155
glycan array binding signal (z-score) [23]: 0.003
glycan array binding signal (z-score) [24]: 0.705
glycan array binding signal (z-score) [25]: -0.072
glycan array binding signal (z-score) [26]: -0.122
glycan array binding signal (z-score) [27]: -0.072
glycan array binding signal (z-score) [28]: -0.141
glycan array binding signal (z-score) [29]: -0.169
glycan array binding signal (z-score) [30]: -0.172
glycan array binding signal (z-score) [31]: -0.014
glycan array binding signal (z-score) [32]: -0.194
glycan array binding signal (z-score) [33]: -0.145
glycan array binding signal (z-score) [34]: -0.276
glycan array binding signal (z-score) [35]: -0.242
glycan array binding signal (z-score) [36]: -0.154
